The campaign covered roughly 350,000 compounds. About 700 (0.2%) were called active. This list was built around the results that the source calls inconclusive (neither active nor inactive); the mix of calls is not that of the screen. Calls come from the whole dose curve; as a rule, active = well fitted inhibition curve with a large enough effect; inconclusive = small, poorly fitted or top-dose-only effect; inactive = flat fitted curve, though single readings scatter. Potencies of inconclusive entries are left out as doubtful fits. More than one record can exist for a structure, and the calls need not agree.
Each molecule was assayed against RecQ-like DNA helicase BLM (Homo sapiens) (UniProt P54132) (assay: qHTS Assay for Inhibitors of Bloom's syndrome helicase (BLM)). Details: recombinant BLM DNA unwinding, fluorescence dequenching; series mostly up to 56.1 µM; activity change, negative = inhibition: at the top concentration.
UniProt P54132, sequence (P54132 whole entry, looked up): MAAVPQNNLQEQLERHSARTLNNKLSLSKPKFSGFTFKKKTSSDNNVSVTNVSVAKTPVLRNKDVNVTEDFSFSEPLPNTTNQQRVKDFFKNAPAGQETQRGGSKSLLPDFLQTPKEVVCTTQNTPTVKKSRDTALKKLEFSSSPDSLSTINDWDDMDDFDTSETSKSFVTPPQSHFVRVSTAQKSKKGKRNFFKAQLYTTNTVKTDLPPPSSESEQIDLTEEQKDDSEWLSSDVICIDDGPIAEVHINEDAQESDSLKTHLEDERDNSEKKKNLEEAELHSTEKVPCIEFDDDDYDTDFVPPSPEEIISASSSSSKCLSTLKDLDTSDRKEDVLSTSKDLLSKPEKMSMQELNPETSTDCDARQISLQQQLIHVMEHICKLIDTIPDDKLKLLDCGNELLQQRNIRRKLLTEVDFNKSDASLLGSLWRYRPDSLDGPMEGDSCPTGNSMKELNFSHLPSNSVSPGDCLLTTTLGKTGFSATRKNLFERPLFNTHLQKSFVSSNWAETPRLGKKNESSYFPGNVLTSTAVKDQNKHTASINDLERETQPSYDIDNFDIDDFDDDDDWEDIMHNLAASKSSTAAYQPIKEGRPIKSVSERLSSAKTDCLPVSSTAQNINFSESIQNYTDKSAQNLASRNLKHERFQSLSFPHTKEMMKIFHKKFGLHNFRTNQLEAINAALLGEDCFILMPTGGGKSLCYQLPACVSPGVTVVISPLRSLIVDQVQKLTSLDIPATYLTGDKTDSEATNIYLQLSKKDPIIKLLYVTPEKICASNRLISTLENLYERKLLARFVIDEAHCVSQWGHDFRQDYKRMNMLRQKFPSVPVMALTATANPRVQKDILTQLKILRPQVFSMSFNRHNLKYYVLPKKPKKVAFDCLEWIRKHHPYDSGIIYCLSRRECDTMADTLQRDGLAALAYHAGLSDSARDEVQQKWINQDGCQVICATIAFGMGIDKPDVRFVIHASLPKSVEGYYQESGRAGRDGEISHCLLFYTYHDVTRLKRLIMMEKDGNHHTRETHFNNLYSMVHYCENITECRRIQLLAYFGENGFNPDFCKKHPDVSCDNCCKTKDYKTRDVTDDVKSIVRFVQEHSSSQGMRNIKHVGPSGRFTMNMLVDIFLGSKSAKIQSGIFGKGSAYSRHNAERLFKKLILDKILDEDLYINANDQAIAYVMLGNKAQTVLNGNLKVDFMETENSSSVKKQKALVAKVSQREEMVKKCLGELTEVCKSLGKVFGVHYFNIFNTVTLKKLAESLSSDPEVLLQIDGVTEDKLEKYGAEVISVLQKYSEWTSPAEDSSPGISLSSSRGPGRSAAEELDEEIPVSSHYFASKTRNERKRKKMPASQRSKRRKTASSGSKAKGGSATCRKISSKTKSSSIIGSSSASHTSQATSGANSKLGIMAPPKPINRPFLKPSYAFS
Text: Survival of cells and the faithful propagation of the genome depend on elaborate mechanisms of detecting and repairing DNA damage. Treatment of advanced cancer relies on radiation therapy or chemotherapy, which kill cancer cells by causing extensive DNA damage. It is often found, that cancer cells develop resistance to therapy through enhanced activity of DNA repair functions; this has led to an increased interest in developing drugs that interfere with DNA repair, which could sensitize cancer cells to conventional therapy.
This validation qHTS assay pertains to human BLM, which is important in resolving abnormal DNA structures formed during replication or homologous recombination. Shutting down the expression of BLM leads to chromosomal instability and higher radiation sensitivity in cultured cells.
The validation assay was a fluorescence quenching based kinetic qHTS for BLM Helicase DNA unwinding. The activity was measured as ATP-dependent separation of a 20-bp DNA duplex extended by 30-nt single-stranded tails (forked duplex). The forked DNA substrate was tagged with rhodamine fluorophore (carboxytetramethyl rhodamine, TAMRA) and BHQ-2 (Black Hole Quencher 2) dark quencher. Strand separation results in an increase in the fluorescence of TAMRA (excitation 525 nm, emission 598 nm). This substrate construct operates in a red-shifted region where very few compound library members have been noted to fluoresce (PubChem AIDs 593 and 594). An additional feature of the assay is the inclusion of 2.5 ug/ml poly (dIdC), to reduce interference by compounds such as DNA intercalators, a major source of false inhibitors.
Ian Hickson, University of Oxford
Opher Gileadi, Structural Genomics Consortium, University of Oxford
Screening Center PI: Austin, C.P.
Screening Center: NIH Chemical Genomics Center [NCGC]
Three uL of reaction buffer (25 mM Tris-HCl (pH 8.0), 5 mM NaCl, 2 mM MgCl2, 1mM DTT, 0.01% Tween- 20, and 2.5 ug/ml poly(dI-dC), including enzyme (50 nM BLM), were dispensed into a 1536-well Greiner black assay plate via solenoid-valve based nanoliter dispensers. Compounds (23 nl each in columns 5-48) and control (23 nl each in column 2 as dose-response) were transferred via a Kalypsys pintool equipped with a 1536-pin array. The plates were incubated for 15 min at room temperature, and then 1 ul of substrates (200 nM DNA and 2 mM ATP, final concentrations) was added to start the reaction. The plate was transferred into a ViewLux high-throughput CCD imager where the reaction progress was measured in a discontinuous kinetic mode (two reads spaced 2 hours apart, with intermediate room temperature incubation of the covered assay plate) by using standard red-fluorescence optics (excitation filter 525 nm, emission filter 598 nm). Enzyme-free and vehicle (DMSO) controls were included for signal normalization.
O=C(O)CC/C(=C\c1ccc(N2CCCC2)c([N+](=O)[O-])c1)c1nc2ccccc2s1 was tested, and the Potency was inconclusive [inhibitor, single point].
With CCOC(=O)C1=C(C)OC2(O)c3ccccc3C(=O)C12O (configuration not stated) the Potency was inconclusive [inhibitor, single point].
For Cc1ccc(C2C(C#N)=C(N)SC(N)=C2C#N)cc1, the “activity change, negative = inhibition” value was inactive: -5.2%.
With O=C(COC(=O)C1CC(=O)N(Cc2ccco2)C1)c1ccc(OC(=O)c2ccco2)cc1 (configuration not stated) the Potency was active: 15.8 µM.
For CCOC(=O)C1=C(C)N=c2s/c(=C\c3ccc(OCC(=O)O)cc3)c(=O)n2C1c1ccc(Cl)cc1 (configuration not stated), the Potency was inconclusive [inhibitor, single point].
In the case of CC(C)(C)OC(=O)NC(NC(=O)OCC1c2ccccc2-c2ccccc21)C(=O)O (configuration not stated), the “activity change, negative = inhibition” value is reported as inactive: 2.46%.
In the case of COCCCNc1cc(C)nc2ccccc12, the “activity change, negative = inhibition” value is reported as inactive: -9.18%.
With Cc1ccc(NC(=O)CN2C(=O)S/C(=C\c3cc(Cl)c(OCC(=O)O)c(Cl)c3)C2=O)cc1 the Potency was inconclusive [inhibitor, single point].
With CNC[C@H](O)c1ccc(O)c(O)c1 the Potency was “inactive”.
For CCc1ccc(N2CC(C(=O)N/N=C/c3cc([N+](=O)[O-])ccc3O)CC2=O)cc1 (configuration not stated), the “activity change, negative = inhibition” value was inactive: -1.47%.
For COCCNC(=O)c1c(N)n(-c2cccc(C)c2)c2nc3ccccc3nc12, the Potency was inconclusive [inhibitor, single point].
For O=C(Nc1ccc2nc(-c3ccco3)c(-c3ccco3)nc2c1)N1CCN(c2ccccn2)CC1, the Potency was active: 4.47 µM.
With CCN(CC)c1ccc(C=Nc2cc(C)cc(C)c2)c(O)c1 the Potency was inconclusive [inhibitor, partial curve].
In the case of O=C(CSc1nnc(-c2cccc(S(=O)(=O)N3CCCC3)c2)n1-c1ccccc1)Nc1ccc(C(=O)O)cc1, the Potency is reported as inconclusive [inhibitor, single point].
For Cc1ccc(N2CC(C(=O)Nc3ccc(S(=O)(=O)NCC4CCCO4)cc3)CC2=O)cc1C (configuration not stated), the “activity change, negative = inhibition” value was inactive: -6.01%.
CCS(=O)(=O)N1N=C(c2ccc(C)cc2)CC1c1cc2ccc(OC)cc2nc1Cl (configuration not stated) was tested, and the Potency was inconclusive [inhibitor, partial curve].
For COc1ccc(OC)c(/C=N/NC(=O)c2cc3c(OC)c(OC)ccc3[nH]2)c1, the Potency was inconclusive [inhibitor, single point].
Nc1ccc(OC(=O)Nc2ccc(O)cc2)cc1 was tested, and the Potency was inconclusive [inhibitor, single point].
For Cc1ccc(S(=O)(=O)/N=C2\C=C(Nc3cccc(C(=O)O)c3)C(=O)c3ccccc32)c(C)c1, the Potency was active: 25.1 µM.
CC(C)N1CCC2(CC1)C(C#N)=C(N)NC(S)=C2C#N was tested, and the Potency was inconclusive [inhibitor, single point].
In the case of CCOc1ccc(-c2cc(NC(=O)Cn3ncc4c3-c3ccccc3OC4)on2)cc1OCC, the Potency is reported as inconclusive [inhibitor, single point].
With Cc1cc(NC(=O)Cc2cccs2)no1 the Potency was inconclusive [inhibitor, partial curve].
Cc1[nH]c2ccccc2c1/C=N/Nc1nncn1N was tested, and the “activity change, negative = inhibition” value was inactive: -1.51%.
With O=C(COC(=O)c1ccc([N+](=O)[O-])s1)Nc1cccc(S(=O)(=O)NC2=NCCCCC2)c1 the Potency was inconclusive [inhibitor, single point].
In the case of COc1ccc(NC(=O)N2CCOCC2)cc1, the Potency is reported as inconclusive [inhibitor, single point].
O=C1c2ccccc2NC(c2cccc(F)c2)N1Cc1ccco1 (configuration not stated) was tested, and the Potency was inconclusive [inhibitor, single point].
For CC(C)Cn1c(N)c(C(=O)COC(=O)c2cc(-c3ccco3)nc3ccccc23)c(=O)n(C)c1=O, the Potency was inconclusive [inhibitor, single point].
For N=c1c(S(=O)(=O)c2ccccc2)cc2c(=O)n3ccccc3nc2n1Cc1ccco1, the Potency was active: 7.08 µM.
CCOC(=O)C1=C(C)N=c2s/c(=C/c3cccc([N+](=O)[O-])c3O)c(=O)n2C1c1ccc(OC)cc1OC (configuration not stated) was tested, and the Potency was inconclusive [inhibitor, single point].
c1coc(-c2ccnc3nc(-n4cccc4)nn23)c1 was tested, and the Potency was inconclusive [inhibitor, partial curve].
In the case of Cc1[nH]c(/C=C2/C(=O)Nc3ccc(S(=O)(=O)Cc4c(Cl)cccc4Cl)cc32)c(C)c1C(=O)N1CCCC1CN1CCCC1 (configuration not stated), the Potency is reported as inconclusive [inhibitor, single point].
With COC(=O)c1ccc(CSc2cc(C)c3ccccc3n2)o1 the Potency was inconclusive [inhibitor, single point].
In the case of CS(=O)(=O)C1=NSC2=NC(=O)/C(=C\c3cccn3-c3ccc(Cl)cc3)C(=N)N21, the Potency is reported as inconclusive [inhibitor, single point].
In the case of COc1ccc(NC(=O)N2CC[C@@]3(CCCN(C(=O)c4cc(C(F)(F)F)cc(C(F)(F)F)c4)C3)C2)cc1, the “activity change, negative = inhibition” value is reported as inactive: -6.13%.
CCOc1ccc(S(=O)(=O)Nc2cc(SCC(=O)O)c(O)c3ccccc23)cc1 was tested, and the Potency was inconclusive [inhibitor, single point].
With COc1cc(CNCCO)cc(Cl)c1OCc1ccc(Cl)cc1Cl the Potency was inconclusive [inhibitor, single point].
CC(=O)NC1=NN(C(C)=O)C(C)(c2ccccc2)S1 (configuration not stated) was tested, and the Potency was inconclusive [inhibitor, partial curve].
With O=C(N/N=C\c1ccc(OC(=O)c2cccs2)cc1)c1ccc(Cl)cc1 the Potency was inconclusive [inhibitor, single point].
In the case of COC(=O)c1cc(NC(=O)Cc2cccs2)cc(C(=O)OC)c1, the Potency is reported as inconclusive [inhibitor, partial curve].
For CC(C)CC(C(=O)Nc1oc(-c2ccco2)c(-c2ccco2)c1C#N)N1C(=O)c2ccccc2C1=O (configuration not stated), the Potency was inconclusive [inhibitor, single point].
O=c1c(-c2c(O)cc(O)c3c(=O)cc(-c4ccc(O)cc4)oc23)c(-c2ccc(O)cc2)oc2cc(O)cc(O)c12 was tested, and the Potency was active: 12.6 µM.
For O=C(COc1ccccc1[N+](=O)[O-])N/N=C/c1ccc(O)c([N+](=O)[O-])c1, the “activity change, negative = inhibition” value was inactive: 0.573%.
For CN(C(=O)c1cc2nc(-c3ccco3)cc(C(F)(F)F)n2n1)C1CCCCC1, the Potency was inconclusive [inhibitor, single point].
In the case of NC1=NC[C@@H](Cc2ccc(O)cc2)N1CCc1cccc2ccccc12, the Potency is reported as inconclusive [inhibitor, single point].
For c1coc(-c2nc3nc4ccccc4n3nc2-c2ccco2)c1, the Potency was inconclusive [inhibitor, partial curve].
In the case of N#Cc1c(SCC(=O)Nc2nccs2)nc2c(c1-c1ccco1)CCCC2, the Potency is reported as inconclusive [inhibitor, single point].
COc1ccc2c3c([nH]c2c1)C1CC2C(CC(O)C(OC)C2C(=O)O)CN1CC3 (configuration not stated) was tested, and the Potency was inconclusive [inhibitor, single point].
In the case of C=C(C)C(=O)NC1=NN(c2ccccc2)C(=O)C1, the Potency is reported as inconclusive [inhibitor, partial curve].
With CC1(C)C2CCC(C2)C1(C)N=C1OC(CCl)CS1 (configuration not stated) the Potency was active: 4.47 µM.
With COc1cccc(Cn2c(=O)c(-c3ccc(Cl)cc3)nc3cnc(OC)nc32)c1 the “activity change, negative = inhibition” value was inactive: -2.98%.
In the case of Cc1cc2c(NC(=O)Nc3ccccc3)cccc2nn1, the “activity change, negative = inhibition” value is reported as inactive: 5.64%.
For COc1ccc(Cl)cc1NC(=O)c1cc2c(=O)n3ccccc3nc2s1, the Potency was inconclusive [inhibitor, partial curve].
With O=C(N/N=C/c1c[nH]c2ccc(Br)cc12)c1ccncc1 the Potency was inconclusive [inhibitor, single point].
N#C/C(=N\Nc1cccc([N+](=O)[O-])c1)C(=O)c1ccc(Br)cc1 was tested, and the Potency was inconclusive [inhibitor, partial curve].
With O=C(CSc1nnc(SCC(=O)c2ccco2)s1)c1ccco1 the Potency was inconclusive [inhibitor, single point].
For CCNc1ccc(Br)cc(C(=O)/C=C/c2c(Cl)cccc2Cl)c1=O, the Potency was inconclusive [inhibitor, single point].
With CN1C(C)(C)CCCC1(C)C the Potency was inconclusive [inhibitor, full curve, poor fit].
In the case of NS(=O)(=O)c1ccc(NC2=CC(=O)C(=O)c3ccccc32)cc1, the Potency is reported as inconclusive [inhibitor, single point].
O=C(Nc1ccc2nc(-c3ccco3)c(-c3ccco3)nc2c1)NC1CC1 was tested, and the Potency was active: 6.31 µM.
For CCOc1ccc(-c2csc(/C(C#N)=C\c3ccc(O)c([N+](=O)[O-])c3)n2)cc1, the Potency was inconclusive [inhibitor, single point].
In the case of Cc1ccc(N=C2NC(=O)S/C2=C\c2ccco2)cc1, the Potency is reported as active: 22.4 µM.
For CN(C)c1cc(Cl)c2nonc2c1N, the Potency was active: 35.5 µM.
For CCOC(=O)Nc1ccc2c(c1)nc(CN1CCN(C(C)=O)CC1)n2C, the “activity change, negative = inhibition” value was inactive: 0.388%.
For O=C(O)c1cc(O)c2c(c1)C(=O)c1cccc(O)c1C2=O, the Potency was active: 35.5 µM.
For Cc1sc(NC(=O)c2sc3nc4c(C)cccc4cc3c2N)c(C#N)c1C, the Potency was inconclusive [inhibitor, partial curve, poor fit].
For CC1(C)CC(=O)C2=C(C1)c1c(ccc3ccccc13)NC2c1cc([N+](=O)[O-])cc([N+](=O)[O-])c1O (configuration not stated), the Potency was active: 22.4 µM.
With Cc1cc(C)c(S(=O)(=O)/N=C2\C=C(Nc3ccc(C(=O)O)cc3)C(=O)c3ccccc32)c(C)c1 the Potency was inconclusive [inhibitor, single point].
Note: nearly all actives have a fitted effect of over 35% in size.
Potency is the fitted concentration of half-maximal effect; tags give direction and shape of the fitted curve.
